IC50 is the fitted dose that halves viability relative to control wells, and lower means more sensitive; where the fit passes the top or lowest dose, that dose stands as a limit. AUC, from the same fit, is the share of area under the viability curve across the 256-fold dose range: 1 means no effect, lower means more sensitive. Any top dose called inferred is not printed in the source and was worked back from the curve model. A value given as a limit tells only on which side of the number the result lay.

Compound in the assay: COc1ncc(-c2ccc3nccc(-c4ccnnc4)c3c2)cc1NS(=O)(=O)c1ccc(F)cc1F [GSK2126458]
Nature of the assay: Viability of human cancer cell lines after 72 h of drug (GDSC screen). The following applies: top dose inferred. As to the method: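 Human cancer cell lines in 384-well plates, medium with 10% serum, drug for 72 h over a 256-fold dose range (nine 2-fold or five 4-fold steps up to the top dose). Adherent lines were fixed and stained with the nucleic acid dye Syto60, suspension lines read with resazurin; signal relative to control wells, capped at 0 and 100%. One two-parameter sigmoid per drug and line, fitted in a mixed model over all curves with the slope shared within a line.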

On to “DND-41 (T-cell leukaemia, suspension, top dose 0.128 µM)”, for which the AUC was determined as 0.823 and the IC50 amounted to 63.9 nM.

As for “DOK (head and neck, adherent, top dose 0.128 µM)”, the AUC was 0.657 and the IC50 stood at 27.2 nM.

With “DOV13 (ovary, adherent, top dose 0.128 µM)”, the AUC stood at 0.976 and the IC50 is > 128 nM.

Turning to “DSH1 (bladder, adherent, top dose 0.128 µM)”, the AUC is 0.777 and the IC50 is 49.1 nM.

With “DU-145 (prostate, adherent, top dose 0.128 µM)”, the AUC was 0.961 and the IC50 was > 128 nM.

In the case of “DU-4475 (breast, suspension, top dose 0.128 µM)”, the AUC was determined as 0.78 and the IC50 was found to be 42.9 nM.

For “Daoy (medulloblastoma, adherent, top dose 0.128 µM)”, the AUC was 0.539 and the IC50 was determined as 10.1 nM.

In the case of “Daudi (Burkitt lymphoma, suspension, top dose 0.128 µM)”, the AUC was determined as 0.497 and the IC50 was determined as 7.88 nM.

Take “Detroit562 (head and neck, adherent, top dose 0.128 µM)”: the AUC is 0.871 and the IC50 was 113 nM.

As for “DoTc2-4510 (cervix, adherent, top dose 0.128 µM)”, the AUC was 0.891 and the half-inhibitory concentration (IC50) was > 128 nM.

On to “EB2 (Burkitt lymphoma, suspension, top dose 0.128 µM)”, for which the AUC turned out to be 0.189 and the IC50 stood at 1.06 nM.

In the case of “EB-3 (Burkitt lymphoma, suspension, top dose 0.128 µM)”, the AUC is 0.504 and the IC50 was found to be 8.23 nM.

“EBC-1 (lung squamous cell carcinoma, adherent, top dose 0.128 µM)”: the AUC was 0.736 and the IC50 amounted to 41.5 nM.

Regarding “EC-GI-10 (oesophagus, adherent, top dose 0.128 µM)”, the AUC worked out at 0.988 and the IC50 was > 128 nM.

Turning to “ECC10 (stomach, suspension, top dose 0.128 µM)”, the AUC is 0.871 and the IC50 was > 128 nM.

In the case of “EFM-19 (breast, adherent, top dose 0.128 µM)”, the AUC worked out at 0.702 and the IC50 is 40.1 nM.

Take “EFM-192A (breast, adherent, top dose 0.128 µM)”: the AUC was 0.899 and the IC50 was > 128 nM.

Regarding “EFO-21 (ovary, adherent, top dose 0.128 µM)”, the AUC is 0.697 and the IC50 stood at 36.7 nM.

“EFO-27 (ovary, adherent, top dose 0.128 µM)”: the AUC worked out at 0.714 and the IC50 is 37.9 nM.

On to “EGI-1 (biliary tract, adherent, top dose 0.128 µM)”, for which the AUC turned out to be 0.618 and the IC50 is 18.7 nM.

As to “EJM (lymphoid neoplasm, semi-adherent, top dose 0.128 µM)”, the AUC came out at 0.62 and the IC50 is 16.2 nM.

In the case of “EKVX (lung adenocarcinoma, adherent, top dose 1.024 µM)”, the AUC came to 0.666 and the IC50 came out at 317 nM.

As for “EM-2 (chronic myeloid leukaemia, suspension, top dose 0.128 µM)”, the AUC worked out at 0.742 and the IC50 was 43.9 nM.

On to “EMC-BAC-1 (lung adenocarcinoma, adherent, top dose 0.128 µM)”, for which the AUC is 0.789 and the concentration for half-maximal inhibition (IC50) came out at 65.3 nM.

Take “EMC-BAC-2 (lung adenocarcinoma, adherent, top dose 0.128 µM)”: the AUC worked out at 0.71 and the concentration for half-maximal inhibition (IC50) was found to be 35.5 nM.

Turning to “EN (endometrium, adherent, top dose 0.128 µM)”, the AUC was 0.745 and the IC50 turned out to be 49.8 nM.

In the case of “EPLC-272H (lung squamous cell carcinoma, adherent, top dose 0.128 µM)”, the AUC came out at 0.47 and the IC50 came out at 6.56 nM.

In the case of “ES1 (Ewing sarcoma, adherent, top dose 0.128 µM)”, the AUC is 0.287 and the IC50 stood at 2.03 nM.

With “ES3 (Ewing sarcoma, adherent, top dose 0.128 µM)”, the AUC was 0.542 and the concentration for half-maximal inhibition (IC50) was found to be 10.5 nM.

“ES4 (Ewing sarcoma, adherent, top dose 0.128 µM)”: the AUC was found to be 0.482 and the IC50 is 7.1 nM.

As for “ES5 (Ewing sarcoma, adherent, top dose 0.128 µM)”, the AUC was 0.197 and the IC50 worked out at 0.854 nM.

Consider “ES6 (Ewing sarcoma, adherent, top dose 0.128 µM)”, for which the AUC was 0.699 and the IC50 was determined as 33.6 nM.

In the case of “ES7 (Ewing sarcoma, adherent, top dose 0.128 µM)”, the AUC was found to be 0.374 and the concentration for half-maximal inhibition (IC50) was found to be 3.56 nM.

In the case of “ES8 (Ewing sarcoma, adherent, top dose 0.128 µM)”, the AUC was found to be 0.425 and the IC50 stood at 5.08 nM.

As to “ES-2 (ovary, adherent, top dose 0.128 µM)”, the AUC is 0.93 and the IC50 is > 128 nM.

Regarding “ESO26 (oesophagus, adherent, top dose 0.128 µM)”, the AUC is 0.699 and the IC50 came out at 27.9 nM.

Take “ESO51 (oesophagus, semi-adherent, top dose 0.128 µM)”: the AUC stood at 0.651 and the IC50 worked out at 25.1 nM.

In the case of “ESS-1 (endometrium, adherent, top dose 0.128 µM)”, the AUC was determined as 0.891 and the IC50 came out at 122 nM.

Consider “ETK-1 (biliary tract, adherent, top dose 0.128 µM)”, for which the AUC is 0.694 and the half-maximal inhibitory concentration (IC50) worked out at 30.5 nM.

For the cell line “EVSA-T (breast, adherent, top dose 0.128 µM)”, the AUC worked out at 0.637 and the IC50 is 18 nM.

As to “EW-1 (Ewing sarcoma, semi-adherent, top dose 0.128 µM)”, the AUC is 0.206 and the half-maximal inhibitory concentration (IC50) amounted to 1.19 nM.

For the cell line “EW-3 (Ewing sarcoma, adherent, top dose 0.128 µM)”, the AUC turned out to be 0.612 and the IC50 is 17 nM.

Consider “EW-7 (Ewing sarcoma, semi-adherent, top dose 0.128 µM)”, for which the AUC is 0.371 and the IC50 was determined as 3.69 nM.

Regarding “EW-11 (Ewing sarcoma, adherent, top dose 0.128 µM)”, the AUC was 0.323 and the 50% inhibitory concentration (IC50) turned out to be 2.21 nM.

Turning to “EW-13 (Ewing sarcoma, suspension, top dose 0.128 µM)”, the AUC was determined as 0.615 and the IC50 came out at 17.2 nM.

Consider “EW-16 (Ewing sarcoma, adherent, top dose 0.128 µM)”, for which the AUC worked out at 0.456 and the concentration for half-maximal inhibition (IC50) was 6.05 nM.

On to “EW-18 (Ewing sarcoma, suspension, top dose 0.128 µM)”, for which the AUC turned out to be 0.278 and the half-inhibitory concentration (IC50) turned out to be 1.79 nM.

With “EW-24 (Ewing sarcoma, semi-adherent, top dose 0.128 µM)”, the AUC amounted to 0.993 and the IC50 was > 128 nM.

As for “EoL-1-cell (haematopoietic neoplasm, suspension, top dose 0.128 µM)”, the AUC was 0.887 and the IC50 worked out at 113 nM.

Regarding “FADU (head and neck, adherent, top dose 0.128 µM)”, the AUC is 0.903 and the IC50 is > 128 nM.

Regarding “FLO-1 (oesophagus, adherent, top dose 0.128 µM)”, the AUC worked out at 0.775 and the IC50 was 75.3 nM.

For the cell line “FTC-133 (thyroid, adherent, top dose 0.128 µM)”, the AUC is 0.934 and the IC50 was > 128 nM.

As to “FU97 (stomach, adherent, top dose 0.128 µM)”, the AUC turned out to be 0.825 and the IC50 amounted to 80.1 nM.

On to “FU-OV-1 (ovary, adherent, top dose 0.128 µM)”, for which the AUC was 0.425 and the IC50 was found to be 4.69 nM.

For “Farage (B-cell lymphoma, suspension, top dose 0.128 µM)”, the AUC stood at 0.32 and the IC50 turned out to be 2.79 nM.

Turning to “G-292 Clone A141B1 (osteosarcoma, adherent, top dose 0.128 µM)”, the AUC worked out at 0.495 and the IC50 worked out at 7.66 nM.

On to “G-361 (melanoma, adherent, top dose 0.128 µM)”, for which the AUC came to 0.642 and the IC50 worked out at 19.3 nM.

As for “G-401 (kidney, adherent, top dose 0.128 µM)”, the AUC was determined as 0.629 and the IC50 stood at 18.9 nM.

Regarding “G-402 (soft tissue, adherent, top dose 0.128 µM)”, the AUC was 0.71 and the IC50 was found to be 38.6 nM.

In the case of “G-MEL (melanoma, adherent, top dose 0.128 µM)”, the AUC is 0.61 and the IC50 came out at 16 nM.

On to “GAK (melanoma, adherent, top dose 0.128 µM)”, for which the AUC amounted to 0.897 and the IC50 is > 128 nM.

As to “GAMG (glioma, adherent, top dose 0.128 µM)”, the AUC is 0.53 and the IC50 came out at 9.69 nM.

On to “GB-1 (glioma, adherent, top dose 0.128 µM)”, for which the AUC was 0.644 and the IC50 was 21.6 nM.

With “GCIY (stomach, adherent, top dose 0.128 µM)”, the AUC came to 0.404 and the 50% inhibitory concentration (IC50) turned out to be 4.21 nM.

As to “GCT (soft tissue, adherent, top dose 0.128 µM)”, the AUC was 0.989 and the IC50 is > 128 nM.

For the cell line “GDM-1 (acute myeloid leukaemia, suspension, top dose 0.128 µM)”, the AUC amounted to 0.097 and the IC50 is < 0.5 nM.

The IC50 is the concentration at which inhibition is half-maximal.

(Values after the supplement of paper PMC4967469.)
